Assay results reported in the supplement of paper PMC10441789.
This is one part of the list. Antibody binding of pooled human sera (four to six donors per pool; dilution not stated) to peptides of the Trypanosoma cruzi antigen TSSA on microarrays. Quantile-normalised fluorescence in arbitrary units, mean of duplicate arrays; higher = more binding. No active / inactive call. The uninfected pools are read here as the healthy donors of the same country. The strongest signals lie near the top of the scale (about 60,000).

tested on: pooled sera of uninfected people, Colombia; experiment: antibody binding signal (normalised fluorescence) (arbitrary fluorescence units); higher = stronger serum antibody binding to peptide
Experimental: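 Microarray of 15-residue peptides over residues 30-55 of Trypanosoma cruzi TSSAII, each with 1 to 10 substitutions at naturally variable positions, probed with one serum pool per country.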

Sequence | antibody binding signal
TPPSGKEKKAATGET | 554
KPAAGETPSQPGASS | 387
TPPSGKDNKPATGGT | 188
GTDKKTAAGGAPSQP | 171
SGKEKKTAAGEAPSQ | 268
TDKKTAAGETPSPSG | 587
SGTDKKPAAGGTPSQ | 366
GTDKKPAAGETPSPS | 273
DNKTATGEAPSPSGA | 133
TDNKTAAGGTPSPPG | 315
TISTPPSGKDNKTAT | 226
KEKKPAAGETPSQPG | 155
TPPSGTDNKTAAGET | 248
GTENKAAAGEAPSPS | 120
PPSGKEKKTATGGAP | 196
ENKTAAGETPSPSGA | 128
GKDNKTATGGTPSQS | 167
PPSGTEKKAATGETP | 661
SGTDKKAAAGGTPSQ | 237
DKKAATGEAPSQPGA | 528

Sequence | antibody binding signal
NKPATGEAPSPPGAS | 604
TDKKTAAGETPSQSG | 901
TPPSGTDKKPAAGET | 532
TDKKTATGEAPSQSG | 134
DNKAAAGGAPSQSGA | 213
TPPSGKENKPATGET | 771
KTATGETPSQSGASS | 168
TPPSGKENKTATGGT | 618
TENKAAAGGAPSPPG | 195
KDNKTATGGTPSQPG | 228
PSGKEKKAAAGETPS | 384
ENKAATGGAPSPSGA | 191
PSGKENKPAAGEAPS | 490
KDNKAAAGGTPSQPG | 227
KKAATGETPSQPGAS | 298
GKDKKPAAGGTPSPS | 114
TENKPATGGAPSPSG | 205
PSGKENKTAAGETPS | 923
GTENKTAAGGTPSQP | 301
GKENKTAAGGAPSPS | 114
